Test [1] addresses T1, endogenous GMCL1 with a knocked-in C-terminal 2×Flag tag (GMCL1 FLAG knock-in HCT116) (human (endogenous in HCT116)) (UniProt Q96IK5).
T1 sequence: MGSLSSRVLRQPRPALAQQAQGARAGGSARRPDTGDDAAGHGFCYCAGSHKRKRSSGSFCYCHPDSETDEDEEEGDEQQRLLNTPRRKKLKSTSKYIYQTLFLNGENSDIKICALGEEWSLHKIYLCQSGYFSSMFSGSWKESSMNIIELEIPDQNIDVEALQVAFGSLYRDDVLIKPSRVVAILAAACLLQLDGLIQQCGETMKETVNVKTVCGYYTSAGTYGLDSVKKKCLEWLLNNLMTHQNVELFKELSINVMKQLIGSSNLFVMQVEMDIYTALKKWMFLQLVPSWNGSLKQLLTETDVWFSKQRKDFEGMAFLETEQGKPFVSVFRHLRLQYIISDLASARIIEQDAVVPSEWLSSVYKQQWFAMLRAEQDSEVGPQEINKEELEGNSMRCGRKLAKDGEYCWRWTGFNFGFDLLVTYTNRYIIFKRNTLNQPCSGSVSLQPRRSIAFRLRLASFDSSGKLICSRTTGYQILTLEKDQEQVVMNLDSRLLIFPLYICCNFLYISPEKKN
Description: co-IP; M phase-synchronized GMCL1 FLAG knock-in HCT116 cells; GMCL1 immunoprecipitated with FLAG beads, blots for endogenous CUL3 and 53BP1.

By UniProt entry, the sequences of proteins in these tests, tags left out.
UniProt Q12888: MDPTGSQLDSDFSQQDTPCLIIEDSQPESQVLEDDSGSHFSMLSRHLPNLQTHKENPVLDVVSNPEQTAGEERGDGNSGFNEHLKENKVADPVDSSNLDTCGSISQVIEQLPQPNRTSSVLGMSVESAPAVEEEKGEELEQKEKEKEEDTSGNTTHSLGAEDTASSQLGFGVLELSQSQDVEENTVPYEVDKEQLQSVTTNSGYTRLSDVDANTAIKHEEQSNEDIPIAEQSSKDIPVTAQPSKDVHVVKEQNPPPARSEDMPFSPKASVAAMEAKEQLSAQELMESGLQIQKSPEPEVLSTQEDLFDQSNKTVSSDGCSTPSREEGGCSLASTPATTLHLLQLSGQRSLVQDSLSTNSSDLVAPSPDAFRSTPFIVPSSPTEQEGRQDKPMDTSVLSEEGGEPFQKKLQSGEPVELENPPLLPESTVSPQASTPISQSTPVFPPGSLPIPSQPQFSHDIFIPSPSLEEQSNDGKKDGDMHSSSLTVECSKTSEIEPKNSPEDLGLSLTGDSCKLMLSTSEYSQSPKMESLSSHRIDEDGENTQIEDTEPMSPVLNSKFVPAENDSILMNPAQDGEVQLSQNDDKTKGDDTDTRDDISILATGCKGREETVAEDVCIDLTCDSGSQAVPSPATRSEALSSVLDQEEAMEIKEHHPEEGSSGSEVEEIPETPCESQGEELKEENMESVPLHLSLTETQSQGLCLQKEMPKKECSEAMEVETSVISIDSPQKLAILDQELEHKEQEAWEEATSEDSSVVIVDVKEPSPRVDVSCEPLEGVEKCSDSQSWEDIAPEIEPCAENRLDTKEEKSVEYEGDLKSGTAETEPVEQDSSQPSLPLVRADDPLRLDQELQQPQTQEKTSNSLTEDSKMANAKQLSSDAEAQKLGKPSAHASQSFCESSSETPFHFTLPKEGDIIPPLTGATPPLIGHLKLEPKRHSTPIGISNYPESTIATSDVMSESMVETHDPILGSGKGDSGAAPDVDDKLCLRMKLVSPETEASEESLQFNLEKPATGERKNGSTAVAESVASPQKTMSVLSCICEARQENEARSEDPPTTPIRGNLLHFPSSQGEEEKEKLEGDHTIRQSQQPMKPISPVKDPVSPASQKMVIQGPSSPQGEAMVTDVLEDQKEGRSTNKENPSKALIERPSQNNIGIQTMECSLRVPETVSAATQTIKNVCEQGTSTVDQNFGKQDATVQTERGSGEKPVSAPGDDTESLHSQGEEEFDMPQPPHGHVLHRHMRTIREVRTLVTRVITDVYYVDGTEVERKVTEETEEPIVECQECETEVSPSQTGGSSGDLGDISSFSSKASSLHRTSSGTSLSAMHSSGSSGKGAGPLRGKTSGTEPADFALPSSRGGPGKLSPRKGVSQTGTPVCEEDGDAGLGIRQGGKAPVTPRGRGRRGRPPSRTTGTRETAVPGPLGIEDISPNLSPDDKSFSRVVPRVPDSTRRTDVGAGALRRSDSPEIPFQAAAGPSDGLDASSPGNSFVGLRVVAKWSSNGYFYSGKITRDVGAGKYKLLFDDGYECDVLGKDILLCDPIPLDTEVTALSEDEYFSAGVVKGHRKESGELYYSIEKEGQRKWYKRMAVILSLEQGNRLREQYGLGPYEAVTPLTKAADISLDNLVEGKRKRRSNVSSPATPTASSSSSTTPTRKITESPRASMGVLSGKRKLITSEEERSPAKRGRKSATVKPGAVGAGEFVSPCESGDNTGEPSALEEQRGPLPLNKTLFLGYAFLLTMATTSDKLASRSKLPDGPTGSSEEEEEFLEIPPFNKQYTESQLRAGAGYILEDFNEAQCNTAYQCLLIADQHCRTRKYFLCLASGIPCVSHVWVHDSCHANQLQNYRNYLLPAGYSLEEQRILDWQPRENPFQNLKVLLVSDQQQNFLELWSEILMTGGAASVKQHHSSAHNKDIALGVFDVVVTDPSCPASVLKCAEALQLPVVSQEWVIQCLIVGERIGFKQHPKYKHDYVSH

Another test concerns the target T2, FLAG-GMCL1 R433A (human) (UniProt Q96IK5).
T2 sequence: T1 sequence with R433A
Description: co-IP; FLAG-tagged GMCL1 (WT or mutants) or GMCL2 transfected in HEK293T (MLN4924 3 h in Figure 1C), FLAG-M2 beads, 4°C 2 h, lysis buffer 25 mM Tris-HCl pH 8.0, 150 mM NaCl, 0.2% NP-40; blots for endogenous 53BP1 and CUL3.

A further test concerns the target T3, FLAG-GMCL2 (human) (UniProt Q8NEA9).
T3 sequence: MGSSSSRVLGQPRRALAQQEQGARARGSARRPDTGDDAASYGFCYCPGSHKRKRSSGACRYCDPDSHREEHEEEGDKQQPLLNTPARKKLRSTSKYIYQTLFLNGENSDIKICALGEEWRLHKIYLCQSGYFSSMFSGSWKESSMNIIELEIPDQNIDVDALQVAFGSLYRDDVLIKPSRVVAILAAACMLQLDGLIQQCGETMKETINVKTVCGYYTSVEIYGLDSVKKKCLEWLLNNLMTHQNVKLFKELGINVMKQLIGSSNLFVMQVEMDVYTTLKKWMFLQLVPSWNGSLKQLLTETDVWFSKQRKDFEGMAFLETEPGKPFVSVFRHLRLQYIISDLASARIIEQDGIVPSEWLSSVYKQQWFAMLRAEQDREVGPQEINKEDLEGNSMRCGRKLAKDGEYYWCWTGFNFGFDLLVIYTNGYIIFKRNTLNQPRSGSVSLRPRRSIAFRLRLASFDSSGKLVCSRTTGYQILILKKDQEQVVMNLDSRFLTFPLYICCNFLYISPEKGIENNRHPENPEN
Described as above.

Test [2] has as its target T4, FLAG-GMCL1 WT (wild-type human germ cell-less protein-like 1) (human) (UniProt Q96IK5).
T4 sequence: T1 sequence
The test is described as above.

Residue numbers refer to the chain shown, from its start. These are yes or no findings as the source states them, for the method shown. Binding seen in cells or lysates may run through a third protein. Some entries that bind do so weakly or less than the wild type. Where a sequence is shown, tags or fusion partners need not be part of it.

As to “endogenous 53BP1, HCT116 (from UniProt Q12888 1-1972)”, the binding entry in test [1] is listed as “binds”.

As to “endogenous 53BP1 (p53-binding protein 1), HEK293T (from UniProt Q12888 1-1972)”, the binding result is listed as “no binding” in the test with FLAG-GMCL1 R433A (human), “no binding” with FLAG-GMCL2 (human) and “binds” in test [2].
